# According to publication PMC9911399, “Two distinct binding modes provide the RNA-binding protein RbFox with extraordinary sequence specificity”:
# Positions count from the first letter of the chain named. The list shows a part of the results.
# B1: GACUAUC (DNA:RNA)
# RNA: GGGAGACCGGAAUUCAGAUUGUCCGACUAUCUUAAAUCCCGUCGUAGCCACCA
# DNA 1: CAATCTGAATTCCGGTCTCCC
# DNA 2: TGGTGGCTACGACGGGATT
# B2: GCCCUGU (DNA:RNA)
# RNA: B1 RNA with A26C, U28C, A29U, U30G, C31U
# DNA 1: CAATCTGAATTCCGGTCTCCC
# DNA 2: TGGTGGCTACGACGGGATT
# B3: ACAUUCC (DNA:RNA)
# RNA: B1 RNA with G25A, A26C, C27A, A29U, U30C
# DNA 1: CAATCTGAATTCCGGTCTCCC
# DNA 2: TGGTGGCTACGACGGGATT
# B4: UACGCUC (DNA:RNA)
# RNA: B1 RNA with G25U, U28G, A29C
# DNA 1: CAATCTGAATTCCGGTCTCCC
# DNA 2: TGGTGGCTACGACGGGATT
# B5: GAGAGGG (DNA:RNA)
# RNA: B1 RNA with C27G, U28A, A29G, U30G, C31G
# DNA 1: CAATCTGAATTCCGGTCTCCC
# DNA 2: TGGTGGCTACGACGGGATT
# B6: CGGGAAC (DNA:RNA)
# RNA: B1 RNA with G25C, A26G, C27G, U28G, U30A
# DNA 1: CAATCTGAATTCCGGTCTCCC
# DNA 2: TGGTGGCTACGACGGGATT
# B7: GAGACUA (DNA:RNA)
# RNA: B1 RNA with C27G, U28A, A29C, C31A
# DNA 1: CAATCTGAATTCCGGTCTCCC
# DNA 2: TGGTGGCTACGACGGGATT
# B8: ACUGACC (DNA:RNA)
# RNA: B1 RNA with G25A, A26C, C27U, U28G, U30C
# DNA 1: CAATCTGAATTCCGGTCTCCC
# DNA 2: TGGTGGCTACGACGGGATT
# B9: CACUGCG (DNA:RNA)
# RNA: B1 RNA with G25C, A29G, U30C, C31G
# DNA 1: CAATCTGAATTCCGGTCTCCC
# DNA 2: TGGTGGCTACGACGGGATT
# B10: UUUACAA (DNA:RNA)
# RNA: GGGAGACCGGAAUUCAGAUUGUCCUUUACAAUUAAAUCCCGUCGUAGCCACCA
# DNA 1: CAATCTGAATTCCGGTCTCCC
# DNA 2: TGGTGGCTACGACGGGATT
# B11: UCCCAUA (DNA:RNA)
# RNA: B1 RNA with G25U, A26C, U28C, C31A
# DNA 1: CAATCTGAATTCCGGTCTCCC
# DNA 2: TGGTGGCTACGACGGGATT
# B12: UCGCGUG (DNA:RNA)
# RNA: B1 RNA with G25U, A26C, C27G, U28C, A29G, C31G
# DNA 1: CAATCTGAATTCCGGTCTCCC
# DNA 2: TGGTGGCTACGACGGGATT
# B13: UUGGGAC (DNA:RNA)
# RNA: B10 RNA with U27G, A28G, C29G, A31C
# DNA 1: CAATCTGAATTCCGGTCTCCC
# DNA 2: TGGTGGCTACGACGGGATT
# B14: ACUUCGU (DNA:RNA)
# RNA: B10 RNA with U25A, U26C, A28U, A30G, A31U
# DNA 1: CAATCTGAATTCCGGTCTCCC
# DNA 2: TGGTGGCTACGACGGGATT
# B15: CUCUUAG (DNA:RNA)
# RNA: B1 RNA with G25C, A26U, A29U, U30A, C31G
# DNA 1: CAATCTGAATTCCGGTCTCCC
# DNA 2: TGGTGGCTACGACGGGATT
# B16: ACACAGG (DNA:RNA)
# RNA: B1 RNA with G25A, A26C, C27A, U28C, U30G, C31G
# DNA 1: CAATCTGAATTCCGGTCTCCC
# DNA 2: TGGTGGCTACGACGGGATT
# B17: GAUACAU (DNA:RNA)
# RNA: B10 RNA with U25G, U26A, A31U
# DNA 1: CAATCTGAATTCCGGTCTCCC
# DNA 2: TGGTGGCTACGACGGGATT
# B18: UGGAAAA (DNA:RNA)
# RNA: B10 RNA with U26G, U27G, C29A
# DNA 1: CAATCTGAATTCCGGTCTCCC
# DNA 2: TGGTGGCTACGACGGGATT
# B19: UCUUGGC (DNA:RNA)
# RNA: B1 RNA with G25U, A26C, C27U, A29G, U30G
# DNA 1: CAATCTGAATTCCGGTCTCCC
# DNA 2: TGGTGGCTACGACGGGATT
# B20: GGAUACA (DNA:RNA)
# RNA: B1 RNA with A26G, C27A, U30C, C31A
# DNA 1: CAATCTGAATTCCGGTCTCCC
# DNA 2: TGGTGGCTACGACGGGATT
# B21: GCAGGUG (DNA:RNA)
# RNA: B1 RNA with A26C, C27A, U28G, A29G, C31G
# DNA 1: CAATCTGAATTCCGGTCTCCC
# DNA 2: TGGTGGCTACGACGGGATT
# B22: UCGUCCC (DNA:RNA)
# RNA: B1 RNA with G25U, A26C, C27G, A29C, U30C
# DNA 1: CAATCTGAATTCCGGTCTCCC
# DNA 2: TGGTGGCTACGACGGGATT
# B23: CUCGGCU (DNA:RNA)
# RNA: B1 RNA with G25C, A26U, U28G, A29G, U30C, C31U
# DNA 1: CAATCTGAATTCCGGTCTCCC
# DNA 2: TGGTGGCTACGACGGGATT
# B24: UGUCGCG (DNA:RNA)
# RNA: B10 RNA with U26G, A28C, C29G, A30C, A31G
# DNA 1: CAATCTGAATTCCGGTCTCCC
# DNA 2: TGGTGGCTACGACGGGATT
# B25: CCCGCAU (DNA:RNA)
# RNA: B10 RNA with U25C, U26C, U27C, A28G, A31U
# DNA 1: CAATCTGAATTCCGGTCTCCC
# DNA 2: TGGTGGCTACGACGGGATT
# B26: GGAGAUG (DNA:RNA)
# RNA: B1 RNA with A26G, C27A, U28G, C31G
# DNA 1: CAATCTGAATTCCGGTCTCCC
# DNA 2: TGGTGGCTACGACGGGATT
# B27: GGAUGUG (DNA:RNA)
# RNA: B1 RNA with A26G, C27A, A29G, C31G
# DNA 1: CAATCTGAATTCCGGTCTCCC
# DNA 2: TGGTGGCTACGACGGGATT
# B28: ACUUUCA (DNA:RNA)
# RNA: B10 RNA with U25A, U26C, A28U, C29U, A30C
# DNA 1: CAATCTGAATTCCGGTCTCCC
# DNA 2: TGGTGGCTACGACGGGATT
# B29: CAGUUGG (DNA:RNA)
# RNA: B1 RNA with G25C, C27G, A29U, U30G, C31G
# DNA 1: CAATCTGAATTCCGGTCTCCC
# DNA 2: TGGTGGCTACGACGGGATT
# B30: CUAGUAU (DNA:RNA)
# RNA: B10 RNA with U25C, U27A, A28G, C29U, A31U
# DNA 1: CAATCTGAATTCCGGTCTCCC
# DNA 2: TGGTGGCTACGACGGGATT
# B31: CUUAAAA (DNA:RNA)
# RNA: B10 RNA with U25C, C29A
# DNA 1: CAATCTGAATTCCGGTCTCCC
# DNA 2: TGGTGGCTACGACGGGATT
# Biological target: T1, RBFOX1 RRM RbFoxmut (Fox-RRM*) (Homo sapiens, UniProt Q9NWB1 109-208, R118D;E147R;N151S;E152T)
# T1 sequence: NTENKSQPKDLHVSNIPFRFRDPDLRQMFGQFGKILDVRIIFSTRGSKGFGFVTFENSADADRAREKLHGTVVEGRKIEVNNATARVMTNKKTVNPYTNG
# Experiment: EMSA; HiTS-Eq, 1 nM pool, 10 min; buffer printed only for the single-RNA assays: 10 mM Tris pH 7.5, 150 mM NaCl, 3.4 mM EDTA, 0.001% NP-40, 30 C
# Settings: tags: His6 N-terminal (pET28a); label: 5' 32P
# Procedure, shortened: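 Purified RbFox RRM, wild type or mutant, was incubated for 10 min in 50 µL with 1 nM of a 5′-radiolabelled RNA pool carrying 7 randomized nucleotides, whose flanks were annealed to DNA oligonucleotides, over a series of increasing protein concentrations. Unbound RNA was resolved on 8% native PAGE, cut out, reverse-transcribed, barcoded by PCR and sequenced on an Illumina HiSeq 2500. Relative association constants were derived from changes in read counts for each RNA species versus the control reaction and normalised to the cognate motif.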
row,Binder,binding signal
1,B1,0.0686 KA relative to UGCAUGU
2,B2,0.114 KA relative to UGCAUGU
3,B3,0.0574 KA relative to UGCAUGU
4,B4,0.054 KA relative to UGCAUGU
5,B5,0.0626 KA relative to UGCAUGU
6,B6,0.0826 KA relative to UGCAUGU
7,B7,0.0787 KA relative to UGCAUGU
8,B8,0.0842 KA relative to UGCAUGU
9,B9,0.126 KA relative to UGCAUGU
10,B10,0.0641 KA relative to UGCAUGU
11,B11,0.0976 KA relative to UGCAUGU
12,B12,0.153 KA relative to UGCAUGU
13,B13,0.0762 KA relative to UGCAUGU
14,B14,0.112 KA relative to UGCAUGU
15,B15,0.175 KA relative to UGCAUGU
16,B16,0.105 KA relative to UGCAUGU

row,Binder,binding signal
1,B17,0.0777 KA relative to UGCAUGU
2,B18,0.0695 KA relative to UGCAUGU
3,B19,0.106 KA relative to UGCAUGU
4,B20,0.0831 KA relative to UGCAUGU
5,B21,0.123 KA relative to UGCAUGU
6,B22,0.0463 KA relative to UGCAUGU
7,B23,0.0859 KA relative to UGCAUGU
8,B24,0.151 KA relative to UGCAUGU
9,B25,0.0703 KA relative to UGCAUGU
10,B26,0.312 KA relative to UGCAUGU
11,B27,0.451 KA relative to UGCAUGU
12,B28,0.0925 KA relative to UGCAUGU
13,B29,0.108 KA relative to UGCAUGU
14,B30,0.134 KA relative to UGCAUGU
15,B31,0.109 KA relative to UGCAUGU
